# Measurements published in the supplement of paper PMC8728848.
# Some of the results follow.
# B1: MpAFP NterminalRI GFP (Marinomonas primoryensis) (protein)
# chain: MSDNQFPFATLGNAIGFITKLDGSVTVQSIDGQERVLKLGDPIFFGETVLTGGSGSVTIAFVDGTDVVIGGDSIVEMTDEIYNTGDNEDLVADSSSEIDALQNAILAGDDPTLIQDAPAAGNTLADQQRVDVSIERNDNSAQAGFGVDTQSSLPTYGYDTDNGNGGQATEREYSAPSLSRTLNQSPLLEHHHHHH
# Legend:
# Assay in all cases: glycan array binding signal (z-score within array); higher = stronger binding
# Details in all cases: glycan notation: IUPAC condensed, linker removed
# [1] = target: Fuc(a1-2)Gal
# Outline: (§1)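 From the Consortium for Functional Glycomics database, 3228 arrays were curated, keeping only those whose protein sequence was available. Binding is given as a within-array Z-score averaged across arrays sharing a protein sequence and across linkers. Negative Z-scores can be read as non-binding.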
# [2] = target: Fuc(a1-2)Gal(b1-3)GalNAc
# Outline: as §1
# [3] = target: Fuc(a1-2)Gal(b1-3)GalNAc(a1-3)[Fuc(a1-2)]Gal(b1-4)Glc
# Outline: as §1
# [4] = target: Fuc(a1-2)Gal(b1-3)GalNAc(a1-3)[Fuc(a1-2)]Gal(b1-4)GlcNAc
# Outline: as §1
# [5] = target: Fuc(a1-2)Gal(b1-3)GalNAc(b1-3)Gal
# Outline: as §1
# [6] = target: Fuc(a1-2)Gal(b1-3)GalNAc(b1-3)Gal(a1-4)Gal(b1-4)Glc
# Outline: as §1
# [7] = target: Fuc(a1-2)Gal(b1-3)GalNAc(b1-4)[Neu5Ac(a2-3)]Gal(b1-4)Glc
# Outline: as §1
# [8] = target: Fuc(a1-2)Gal(b1-3)GlcNAc
# Outline: as §1
# [9] = target: Fuc(a1-2)Gal(b1-3)GlcNAc(b1-2)Man(a1-3)[Fuc(a1-2)Gal(b1-3)GlcNAc(b1-2)Man(a1-6)]Man(b1-4)GlcNAc(b1-4)GlcNAc
# Outline: as §1
# [10] = target: Fuc(a1-2)Gal(b1-3)GlcNAc(b1-2)Man(a1-3)[Fuc(a1-2)Gal(b1-3)GlcNAc(b1-2)Man(a1-6)]Man(b1-4)GlcNAc(b1-4)[Fuc(a1-6)]GlcNAc
# Outline: as §1
# [11] = target: Fuc(a1-2)Gal(b1-3)GlcNAc(b1-3)Gal(b1-4)Glc
# Outline: as §1
# [12] = target: Fuc(a1-2)Gal(b1-3)GlcNAc(b1-3)GalNAc
# Outline: as §1
# [13] = target: Fuc(a1-2)Gal(b1-3)GlcNAc(b1-3)[Fuc(a1-2)Gal(b1-3)GlcNAc(b1-6)]GalNAc
# Outline: as §1
# [14] = target: Fuc(a1-2)Gal(b1-3)GlcNAc(b1-3)[Gal(b1-4)GlcNAc(b1-6)]Gal(b1-4)Glc
# Outline: as §1
# [15] = target: Fuc(a1-2)Gal(b1-3)GlcNAc(b1-3)[Neu5Ac(a2-6)Gal(b1-4)GlcNAc(b1-6)]Gal(b1-4)Glc
# Outline: as §1
# [16] = target: Fuc(a1-2)Gal(b1-3)GlcNAc6S
# Outline: as §1
# [17] = target: Fuc(a1-2)Gal(b1-3)[Fuc(a1-4)]GlcNAc
# Outline: as §1
# [18] = target: Fuc(a1-2)Gal(b1-3)[Fuc(a1-4)]GlcNAc(b1-2)Man(a1-3)[Fuc(a1-2)Gal(b1-3)[Fuc(a1-4)]GlcNAc(b1-2)Man(a1-3)]Man(b1-4)GlcNAc(b1-4)GlcNAc
# Outline: as §1
# [19] = target: Fuc(a1-2)Gal(b1-3)[Fuc(a1-4)]GlcNAc(b1-2)Man(a1-3)[Fuc(a1-2)Gal(b1-3)[Fuc(a1-4)]GlcNAc(b1-2)Man(a1-6)]Man(b1-4)GlcNAc(b1-4)[Fuc(a1-6)]GlcNAc(b1-4)[Fuc(a1-6)]GlcNAc
# Outline: as §1
# [20] = target: Fuc(a1-2)Gal(b1-3)[Fuc(a1-4)]GlcNAc(b1-3)[Fuc(a1-3)[Gal(b1-4)]GlcNAc(b1-6)]Gal(b1-4)Glc
# Outline: as §1
# [21] = target: Fuc(a1-2)Gal(b1-3)[Fuc(a1-4)]GlcNAc(b1-3)[Gal(b1-4)GlcNAc(b1-6)]Gal(b1-4)Glc
# Outline: as §1
# [22] = target: Fuc(a1-2)Gal(b1-4)Fuc(a1-3)]GlcNAc(b1-2)Man(a1-3)[Fuc(a1-2)Gal(b1-4)[Fuc(a1-3)]GlcNAc(b1-2)Man(a1-6)]Man(b1-4)GlcNAc(b1-4)GlcNAc
# Outline: as §1
# [23] = target: Fuc(a1-2)Gal(b1-4)Glc
# Outline: as §1
# [24] = target: Fuc(a1-2)Gal(b1-4)Glc6S
# Outline: as §1
# [25] = target: Fuc(a1-2)Gal(b1-4)GlcNAc
# Outline: as §1
# [26] = target: Fuc(a1-2)Gal(b1-4)GlcNAc(b1-2)Man
# Outline: as §1
# [27] = target: Fuc(a1-2)Gal(b1-4)GlcNAc(b1-2)Man(a1-3)[Fuc(a1-2)Gal(b1-4)GlcNAc(b1-2)Man(a1-6)]Man(b1-4)GlcNAc(b1-4)GlcNAc
# Outline: as §1
# [28] = target: Fuc(a1-2)Gal(b1-4)GlcNAc(b1-2)Man(a1-3)[Fuc(a1-2)Gal(b1-4)GlcNAc(b1-2)Man(a1-6)]Man(b1-4)GlcNAc(b1-4)[Fuc(a1-6)]GlcNAc
# Outline: as §1
# [29] = target: Fuc(a1-2)Gal(b1-4)GlcNAc(b1-2)[Fuc(a1-2)Gal(b1-4)GlcNAc(b1-4)]Man(a1-3)[Fuc(a1-2)Gal(b1-4)GlcNAc(b1-2)Man(a1-6)]Man(b1-4)GlcNAc(b1-4)GlcNAc
# Outline: as §1
# [30] = target: Fuc(a1-2)Gal(b1-4)GlcNAc(b1-3)Gal(b1-4)GlcNAc
# Outline: as §1
# [31] = target: Fuc(a1-2)Gal(b1-4)GlcNAc(b1-3)Gal(b1-4)GlcNAc(b1-2)Man(a1-3)[Fuc(a1-2)Gal(b1-4)GlcNAc(b1-3)Gal(b1-4)GlcNAc(b1-2)Man(a1-6)]Man(b1-4)GlcNAc(b1-4)GlcNAc
# Outline: as §1
# [32] = target: Fuc(a1-2)Gal(b1-4)GlcNAc(b1-3)Gal(b1-4)GlcNAc(b1-3)Gal(b1-4)GlcNAc
# Outline: as §1
# [33] = target: Fuc(a1-2)Gal(b1-4)GlcNAc(b1-3)GalNAc
# Outline: as §1
# [34] = target: Fuc(a1-2)Gal(b1-4)GlcNAc(b1-3)[Fuc(a1-2)Gal(b1-4)GlcNAc(b1-6)]GalNAc
# Outline: as §1
# [35] = target: Fuc(a1-2)Gal(b1-4)GlcNAc(b1-3)[Fuc(a1-3)[Gal(b1-4)]GlcNAc(b1-6)]Gal(b1-4)Glc
# Outline: as §1
# [36] = target: Fuc(a1-2)Gal(b1-4)GlcNAc(b1-6)GalNAc
# Outline: as §1
# [37] = target: Fuc(a1-2)Gal(b1-4)GlcNAc6S
# Outline: as §1
binder,measurement,setting,value
B1,glycan array binding signal (z-score),[1],-0.557
same,glycan array binding signal (z-score),[2],-0.358
same,glycan array binding signal (z-score),[3],-0.483
same,glycan array binding signal (z-score),[4],-0.525
same,glycan array binding signal (z-score),[5],-0.298
same,glycan array binding signal (z-score),[6],-0.225
same,glycan array binding signal (z-score),[7],-0.577
same,glycan array binding signal (z-score),[8],-0.496
same,glycan array binding signal (z-score),[9],0.818
same,glycan array binding signal (z-score),[10],0.078
same,glycan array binding signal (z-score),[11],-0.471
same,glycan array binding signal (z-score),[12],-0.276
same,glycan array binding signal (z-score),[13],0.079
same,glycan array binding signal (z-score),[14],-0.221
same,glycan array binding signal (z-score),[15],-0.238
same,glycan array binding signal (z-score),[16],-0.105
same,glycan array binding signal (z-score),[17],-0.16
same,glycan array binding signal (z-score),[18],0.694
same,glycan array binding signal (z-score),[19],0.468
same,glycan array binding signal (z-score),[20],-0.263
same,glycan array binding signal (z-score),[21],-0.228
same,glycan array binding signal (z-score),[22],1.78
same,glycan array binding signal (z-score),[23],-0.478
same,glycan array binding signal (z-score),[24],1.7
same,glycan array binding signal (z-score),[25],-0.249
same,glycan array binding signal (z-score),[26],0.01
same,glycan array binding signal (z-score),[27],-0.219
same,glycan array binding signal (z-score),[28],0.587
same,glycan array binding signal (z-score),[29],0.081
same,glycan array binding signal (z-score),[30],-0.457
same,glycan array binding signal (z-score),[31],0.233
same,glycan array binding signal (z-score),[32],-0.069
same,glycan array binding signal (z-score),[33],0.733
same,glycan array binding signal (z-score),[34],-0.466
same,glycan array binding signal (z-score),[35],-0.232
same,glycan array binding signal (z-score),[36],1.68
same,glycan array binding signal (z-score),[37],-0.585
